Some of the results follow. Repeats are few or missing, and single values can be far off.

These results are taken from the supplement of paper PMC4604168 (melanoma cell lines).
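Also: cells treated in 1,536-well plates, then fixed and DAPI-stained, with nuclei counted from automated high-throughput microscope images.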

This test concerns MZ2-MEL. As to the kind of experiment: cell count relative to DMSO control; melanoma cells; higher = more viable cells. The conditions noted are these: library dose: standard library concentration; 72 h.
As for `CC(=O)c1c(C)c2cnc(Nc3ccc(N4CCNCC4)cn3)nc2n(C2CCCC2)c1=O` [palbociclib] + N#Cc1c(O)c2c(-c3ccc(-c4ccccc4O)cc3)csc2[nH]c1=O [A769662] (first compound 0.2 µM, partner dose 10 µM), the cell count was determined as 63.8%.

In the case of `Nc1ccn([C@@H]2O[C@H](CO)[C@@H](O)C2(F)F)c(=O)n1` [gemcitabine] + C=CCNC1=C2C[C@@H](C)C[C@H](OC)[C@H](O)[C@@H](C)/C=C(\C)[C@H](OC(N)=O)[C@@H](OC)/C=C\C=C(/C)C(=O)NC(=CC1=O)C2=O [Tanespimycin] (first compound 0.002 µM, partner dose 0.01 µM), the cell count is 77.3%.

`CC(=O)c1c(C)c2cnc(Nc3ccc(N4CCNCC4)cn3)nc2n(C2CCCC2)c1=O` [palbociclib] + O=C(Nc1cccc(Cl)c1)Nc1ncc(CCNc2ncnc3ccsc23)s1 [SNS314] (first compound 0.2 µM, partner dose 0.004 µM): the cell count is 65.9%.

The compound `CC(=O)O[C@@]12CO[C@@H]1C[C@H](O)[C@@]1(C)C(=O)[C@H](O)C3=C(C)[C@@H](OC(=O)[C@H](O)[C@@H](NC(=O)OC(C)(C)C)c4ccccc4)C[C@@](O)([C@@H](OC(=O)c4ccccc4)[C@H]21)C3(C)C` [Docetaxel] + c1cc(-c2cnn3cc(-c4ccc(OCCN5CCCCC5)cc4)cnc23)ccn1 [Dorsomorphin] (first compound 0.0005 µM, partner dose 2 µM) registered a cell count of 32.4%.

The compound `Nc1ncn([C@H]2C[C@H](O)[C@@H](CO)O2)c(=O)n1` [decitabine] + COC(=O)c1sccc1S(=O)(=O)Nc1ccc(Nc2ccccc2)cc1OC [GSK0660] (first compound 0.5 µM, partner dose 5 µM) registered a cell count of 77.3%.

`CO[C@H]1C[C@@H]2CC[C@@H](C)[C@@](O)(O2)C(=O)C(=O)N2CCCC[C@H]2C(=O)O[C@H]([C@H](C)C[C@@H]2CC[C@@H](OCCO)[C@H](OC)C2)CC(=O)[C@H](C)/C=C(\C)[C@@H](O)[C@@H](OC)C(=O)[C@H](C)C[C@H](C)/C=C/C=C/C=C/1C` [everolimus] + Clc1ccc(Nc2nnc(Cc3ccncc3)c3ccccc23)cc1 [vatalanib] (first compound 0.1 µM, partner dose 10 µM) yielded a cell count of 56.1%.

The compound `Nc1ccn([C@@H]2O[C@H](CO)[C@@H](O)C2(F)F)c(=O)n1` [gemcitabine] + OCc1c[nH]c2ccccc12 [Indole-3-carbinol] (first compound 0.002 µM, partner dose 4 µM) displayed a cell count of 76.7%.

Turning to `Nc1ncn([C@H]2C[C@H](O)[C@@H](CO)O2)c(=O)n1` [decitabine] + O=C(Nc1ccccc1)c1cc([N+](=O)[O-])ccc1Cl [GW9662] (first compound 0.5 µM, partner dose 10 µM), the cell count was 74.9%.

With `Nc1ccn([C@@H]2O[C@H](CO)[C@@H](O)C2(F)F)c(=O)n1` [gemcitabine] + NC(=O)Nc1cc(-c2cccc(F)c2)sc1C(=O)N[C@H]1CCCNC1 [AZD7762] (first compound 0.002 µM, partner dose 0.1 µM), the cell count came to 58.6%.

`Nc1nc(F)nc2c1ncn2[C@@H]1O[C@H](CO)[C@@H](O)[C@@H]1O` [fludarabine] + O=c1cc(-c2cccc3c2Sc2ccccc2S3)oc(N2CCOCC2)c1 [KU55933] (first compound 1 µM, partner dose 5 µM): the cell count is 96%.

As for `CC(=O)O[C@@]12CO[C@@H]1C[C@H](O)[C@@]1(C)C(=O)[C@H](O)C3=C(C)[C@@H](OC(=O)[C@H](O)[C@@H](NC(=O)OC(C)(C)C)c4ccccc4)C[C@@](O)([C@@H](OC(=O)c4ccccc4)[C@H]21)C3(C)C` [Docetaxel] + CO[C@H]1C[C@@H]2CC[C@@H](C)[C@@](O)(O2)C(=O)C(=O)N2CCCC[C@H]2C(=O)O[C@H]([C@H](C)C[C@@H]2CC[C@@H](OCCO)[C@H](OC)C2)CC(=O)[C@H](C)/C=C(\C)[C@@H](O)[C@@H](OC)C(=O)[C@H](C)C[C@H](C)/C=C/C=C/C=C/1C [everolimus] (first compound 0.0005 µM, partner dose 0.1 µM), the cell count turned out to be 37.5%.

Consider `CC(=O)O[C@@]12CO[C@@H]1C[C@H](O)[C@@]1(C)C(=O)[C@H](O)C3=C(C)[C@@H](OC(=O)[C@H](O)[C@@H](NC(=O)OC(C)(C)C)c4ccccc4)C[C@@](O)([C@@H](OC(=O)c4ccccc4)[C@H]21)C3(C)C` [Docetaxel] + O=C(CCCCCCC(=O)Nc1ccccc1)NO [vorinostat] (first compound 0.0005 µM, partner dose 0.4 µM), for which the cell count turned out to be 54.1%.

As for `Nc1ccn([C@@H]2O[C@H](CO)[C@@H](O)C2(F)F)c(=O)n1` [gemcitabine] + c1cc(-c2cnn3cc(-c4ccc(OCCN5CCCCC5)cc4)cnc23)ccn1 [Dorsomorphin] (first compound 0.002 µM, partner dose 2 µM), the cell count worked out at 69.8%.
